# Assay results as given in paper PMC4336329 (PLoS ONE, 2015).
# The campaign covered roughly 310,000 compounds. About 2,200 (0.71%) showed an effect of 50% or more. Effects have a minus sign here. Some of the results follow.
# Target: human ether-à-go-go-related gene (hERG) potassium channel (human, UniProt Q12809)
# Test: primary screen, population patch clamp on CHO cells stably expressing hERG
# Sequence of human ether-à-go-go-related gene (hERG) potassium channel (Q12809 whole entry, looked up): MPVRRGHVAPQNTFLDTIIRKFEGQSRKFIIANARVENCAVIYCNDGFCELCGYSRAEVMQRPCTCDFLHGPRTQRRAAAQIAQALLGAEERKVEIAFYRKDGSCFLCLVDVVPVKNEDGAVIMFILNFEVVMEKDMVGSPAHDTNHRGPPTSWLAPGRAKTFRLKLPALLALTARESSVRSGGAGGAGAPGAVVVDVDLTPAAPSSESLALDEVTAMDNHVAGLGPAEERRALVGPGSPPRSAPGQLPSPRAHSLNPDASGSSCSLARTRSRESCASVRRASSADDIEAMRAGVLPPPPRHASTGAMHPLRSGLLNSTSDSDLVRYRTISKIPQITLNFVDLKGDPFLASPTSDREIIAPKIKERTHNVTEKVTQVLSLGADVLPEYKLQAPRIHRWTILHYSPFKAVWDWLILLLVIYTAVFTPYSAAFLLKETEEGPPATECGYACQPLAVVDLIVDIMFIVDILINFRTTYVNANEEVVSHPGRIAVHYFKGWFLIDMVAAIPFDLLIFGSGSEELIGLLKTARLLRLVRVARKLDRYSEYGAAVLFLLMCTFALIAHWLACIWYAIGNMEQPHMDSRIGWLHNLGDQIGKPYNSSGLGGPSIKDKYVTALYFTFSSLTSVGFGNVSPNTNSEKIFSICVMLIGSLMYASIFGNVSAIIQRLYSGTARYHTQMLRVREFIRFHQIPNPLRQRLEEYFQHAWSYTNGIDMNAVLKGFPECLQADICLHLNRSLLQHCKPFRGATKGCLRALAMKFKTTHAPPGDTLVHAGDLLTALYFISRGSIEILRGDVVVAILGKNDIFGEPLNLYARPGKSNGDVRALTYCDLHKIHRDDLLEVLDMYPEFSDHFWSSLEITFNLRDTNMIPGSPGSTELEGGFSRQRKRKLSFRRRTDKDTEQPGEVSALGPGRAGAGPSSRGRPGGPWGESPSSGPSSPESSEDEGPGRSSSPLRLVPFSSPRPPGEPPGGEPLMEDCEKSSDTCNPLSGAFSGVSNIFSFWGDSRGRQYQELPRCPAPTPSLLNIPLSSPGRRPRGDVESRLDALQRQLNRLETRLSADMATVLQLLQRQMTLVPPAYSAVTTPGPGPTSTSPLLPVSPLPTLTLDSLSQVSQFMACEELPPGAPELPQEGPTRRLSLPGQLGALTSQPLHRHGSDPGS
row,SMILES,"hERG current change (%, negative = inhibition) at 1uM [%]"
1,O=C(CSc1nnc(-c2ccncc2)n1-c1ccc(Cl)cc1)N1CCOCC1,4.03
2,CC(C)CC(=O)N1CCN(c2ccc([N+](=O)[O-])cc2Cl)CC1,-8.56
3,COc1ccc(CNc2nc3nc4c(c(=O)n3[nH]2)CCC4)cc1,5.27
4,O=C(CN1CCN(S(=O)(=O)c2ccc(F)cc2)CC1)Nc1ccc2c(c1)OCO2,-8
5,O=C1CC(C(=O)N2CCN(c3ccccc3Cl)CC2)CN1Cc1ccccc1 (stereo not shown),2.1
6,CCCC1=Nc2cc(C(=O)NCCCN3CCN(C)CC3)ccc2Sc2ccccc21,9.88
7,CCCN(CCC)CCCNc1ccc(C(=O)Nc2cccc(OC)c2)cc1[N+](=O)[O-].Cl,-47.6
8,CC1CCC2(CC1)NC(=O)N(Cc1cc(=O)n3ccsc3n1)C2=O (stereo not shown),7.92
9,Cc1cc(C)cc(-c2nnc(SCc3ccc(C(=O)O)cc3)o2)c1,-13.9
10,O=C(NCCc1nnc2ccc(SCC(=O)N3CCCC3)nn12)c1ccccc1,6.23
11,Cl.O.O=C1Cc2ccccc2Sc2c(OCCN3CCCCC3)cccc21,-46.2
12,CCc1ccc(C(=O)NNC(=O)C2CC(=O)N(Cc3ccccc3)C2)cc1 (stereo not shown),-2.06
13,Cc1ccc(NC(=O)NC(=O)CN2C(=O)NC3(CCCCCCC3)C2=O)c(C)c1,16.8
14,CC(C)C1Nc2ccc(S(N)(=O)=O)cc2C2C=CCC21 (stereo not shown),8.92
15,CC(=O)NCCNC(=O)c1ccc2c(c1)S(=O)(=O)c1ccccc1C2=O,11.8
16,CCOc1ccc(N2C(=O)CC(N3CCN(c4ccccc4OC)CC3)C2=O)cc1 (stereo not shown),10.1
17,COc1ccc2c(c1)C1C=CCC1C(c1cc3c(cc1Br)OCO3)N2 (stereo not shown),8.48
18,S=C(NCCCN1CCOCC1)N1CCN(c2cccc(Cl)c2)CC1,0.873
19,O=C(c1n[nH]c(=O)c2ccccc12)N1CCN(c2ccc(F)cc2)CC1,7.48
20,CN1CCc2nc3sc(C(=O)NCc4ccccc4)c(N)c3cc2C1,-12.3
21,O=C(Nc1ccc2ccccc2c1)c1ccc(NS(=O)(=O)c2ccc(Br)s2)cc1,13.8
22,O=C1Nc2c(Br)cc(Br)c3cccc1c23,12.6
23,COc1ccccc1NC(=O)CCCCCN1C(=O)c2cccc3cccc(c23)C1=O,12.1
24,O=C(Cc1ccc(F)cc1)N(c1ccc(F)cc1)C1C=CS(=O)(=O)C1 (stereo not shown),12.4
25,CN1CCN(CC(=O)n2c3c(c4ccccc42)CCCC3)CC1.Cl,9.8
26,Cc1cc(=O)oc2cc(OCC(O)CN3CCN(c4ccc(F)cc4)CC3)ccc12 (stereo not shown),-8.99
27,CCCCCn1c(CN2CC(C)OC(C)C2)nc2c1c(=O)n(C)c(=O)n2C (stereo not shown),7.84
28,Cc1cc(C)c(S(=O)(=O)N(C)CC(=O)NC2CCCC2)c(C)c1,-0.0986

row,SMILES,"hERG current change (%, negative = inhibition) at 1uM [%]"
1,Cc1ccc(-n2cc(C(=O)c3cc(Cl)ccc3O)cc(C#N)c2=O)cc1,16
2,CN(Cc1ccccc1)S(=O)(=O)c1ccc2c(c1)n(C)c(=O)c(=O)n2C,8.83
3,O=C(Nc1ccnn1C1CCN(C(=O)c2cccc(C(F)(F)F)c2)CC1)C1CC1,-10.8
4,COc1ccc(/C=C2/N=C(c3cccs3)OC2=O)cc1OC(C)C,14.4
5,O=C(Nc1cccc(C(F)(F)F)c1)N(Cc1ccc(Cl)cc1)CC(O)C(F)(F)F (stereo not shown),5.72
6,CCCCn1nc(CC(=O)NCCN(CC)CC)c2ccccc2c1=O,13.6
7,Cc1cc(/C=C(\C#N)C(=O)NCc2cccs2)c(C)[nH]1,6.87
8,CCOC(=O)C1CCN(C(=O)c2cccc(NS(=O)(=O)c3ccc(F)c(F)c3)c2)CC1,7.17
9,C=CCOc1ccc(-c2nc3c(c(=O)[nH]c(=O)n3CCC)n2CCCC)cc1,7.5
10,COc1ccc2c(c1)OC1(C)CC2C(C(=O)c2ccccc2OC)C(=O)N1 (stereo not shown),10.8
11,Cc1ccnc(N/N=C/c2ccco2)n1,15
12,Clc1ccc(-c2nnc3n2CCCC3)cc1,15.6
13,CCOc1cccc(NCc2cc3c(C(C)(C)C)nn(-c4ccccc4)c3[nH]c2=O)c1,6.67
14,CN1CCN(c2nc(-c3cccnc3)nc3scc(-c4ccccc4)c23)CC1,10.5
15,CC(C)(C)c1ccc(S(=O)(=O)N2CCC(CO)(CC3CCCCO3)CC2)cc1 (stereo not shown),17.4
16,Cc1nc2nc(C)c(CCC(=O)Nc3ccc4c(c3)OCO4)c(C)n2n1,-12.9
17,O=C(O)CCCNC(=O)c1cccc(C(=O)NCCCC(=O)O)n1,14.9
18,CCC(C)[C@H](NC(=O)N1CCn2c1nc1ccccc12)C(=O)NCCc1ccc(OC)c(OC)c1 (stereo partly shown),6.72
19,Cc1ccc(C)c(S(=O)(=O)c2c(C)cc(C)[nH]c2=O)c1,13.7
20,CNC1(c2nnnn2-c2ccccc2C)CCOC(C)(C)C1 (stereo not shown),12.5
21,Cc1ccccc1C(=O)NCC(=O)OC(C)C(=O)Nc1ccnn1C(C)C (stereo not shown),2.62
22,Cc1ccc(C)c(OCCC(=O)NCCc2ccc(S(N)(=O)=O)cc2)c1,13.5
23,CC1(C)Cc2cccc(OCC(=O)Nc3cc(S(C)(=O)=O)ccc3Cl)c2O1,14.1
24,O=C(CSc1nnc(C2CC2)n1-c1ccccc1)NCc1ccco1,9.78
25,COc1ccc(CNC(=O)C2CCN(S(=O)(=O)c3ccc4c(c3)N(C(C)=O)CCO4)CC2)cc1,2.29
26,O=c1[nH]nc(SCCS(=O)(=O)c2ccc(F)cc2)n1-c1ccc2c(c1)OCCO2,6.54
27,Cc1onc(-c2ccccc2)c1C(=O)N/N=C/c1cn(C)c2ccccc12,13.3
